Experimental data from the supplement of paper PMC4604168 (melanoma cell lines).
This is one part of the list. Most values come without repeats; read them as rough.

What was measured:
Test in all cases: cell count relative to DMSO control; melanoma cells; higher = more viable cells
Details in all cases: library dose: low library concentration; 72 h
MeWo = tested on: MeWo
RPMI7951 = tested on: RPMI7951
RVH-421 = tested on: RVH-421
SkMel28 = tested on: SkMel28
SkMel30 = tested on: SkMel30
SkMel5 = tested on: SkMel5
UACC257 = tested on: UACC257
UACC62 = tested on: UACC62
WM115 = tested on: WM115
WM1716 = tested on: WM1716
WM1745 = tested on: WM1745
WM3526 = tested on: WM3526
WM3619 = tested on: WM3619
WM451Lu = tested on: WM451Lu
MZ2-MEL = tested on: MZ2-MEL
SkMel2 = tested on: SkMel2
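Note: cell number obtained by counting DAPI-stained nuclei in high-throughput microscope images with image analysis software, screen run in 1,536-well plates.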

Compound | cell count (MeWo) [%] | cell count (RPMI7951) [%] | cell count (RVH-421) [%] | cell count (SkMel28) [%] | cell count (SkMel30) [%] | cell count (SkMel5) [%] | cell count (UACC257) [%] | cell count (UACC62) [%] | cell count (WM115) [%] | cell count (WM1716) [%] | cell count (WM1745) [%] | cell count (WM3526) [%] | cell count (WM3619) [%] | cell count (WM451Lu) [%] | cell count (MZ2-MEL) [%] | cell count (SkMel2) [%]
CCCS(=O)(=O)Nc1ccc(F)c(C(=O)c2c[nH]c3ncc(Cl)cc23)c1F + COc1cc2c(Oc3ccc4[nH]c(C)cc4c3F)ncnc2cc1OCCCN1CCCC1 [cediranib] (first compound 0.08 µM, partner dose 0.4 µM) | 98.4 | 99.5 | 78.7 | 80.2 | 84.4 | 90.8 | 59.2 | 67.2 | 88.6 | 92.3 | 82.7 | 52 | 120 | 103 | – | –
C=C(c1ccc(C(=O)O)cc1)c1cc2c(cc1C)C(C)(C)CCC2(C)C [Bexarotene] + Nc1nc(F)nc2c1ncn2[C@@H]1O[C@H](CO)[C@@H](O)[C@@H]1O [fludarabine] (first compound 2 µM, partner dose 0.2 µM) | 43.2 | 57.7 | 111 | 76.3 | 26.2 | – | – | 84.4 | 96.9 | 90.5 | 86.3 | 39.2 | 101 | 62.6 | 89 | 22.9
CCCS(=O)(=O)Nc1ccc(F)c(C(=O)c2c[nH]c3ncc(Cl)cc23)c1F + Nc1nc(F)nc2c1ncn2[C@@H]1O[C@H](CO)[C@@H](O)[C@@H]1O [fludarabine] (first compound 0.08 µM, partner dose 0.2 µM) | 35.6 | 109 | 97 | 75.7 | 22 | – | – | 60.8 | 95.8 | 125 | 103 | 26.9 | 89.1 | 45.4 | 89.8 | 8.63
NC1(c2ccc(-c3nc4ccn5c(=O)[nH]nc5c4cc3-c3ccccc3)cc2)CCC1 + Cc1cc(N2CCOCC2)cc2[nH]c(-c3c(NC[C@@H](O)c4cccc(Cl)c4)cc[nH]c3=O)nc12 [BMS536924] (first compound 0.4 µM, partner dose 0.2 µM) | 77.8 | 104 | 89.5 | 68.6 | 60.4 | 102 | 88.4 | 72.3 | 74 | 91.8 | 77.7 | 65.1 | 98.6 | 84.3 | – | 70.1
NC1(c2ccc(-c3nc4ccn5c(=O)[nH]nc5c4cc3-c3ccccc3)cc2)CCC1 + Nc1ccn([C@@H]2O[C@H](CO)[C@@H](O)C2(F)F)c(=O)n1 [gemcitabine] (first compound 0.4 µM, partner dose 0.0004 µM) | 80.3 | 94.4 | 82 | 77.5 | 88.6 | – | – | 72.7 | 77.5 | 84.7 | 85.2 | 85.8 | 75.4 | 99.7 | 91.1 | –
CS(=O)(=O)c1ccc(C(=O)Nc2ccc(Cl)c(-c3ccccn3)c2)c(Cl)c1 [vismodegib] + CCCS(=O)(=O)Nc1ccc(F)c(C(=O)c2c[nH]c3ncc(Cl)cc23)c1F [PLX4720] (first compound 1 µM, partner dose 0.08 µM) | 90.7 | 116 | 81.9 | 104 | 90.9 | – | – | 86.5 | 119 | 125 | 95.8 | 81.3 | 98.8 | 109 | – | 89.8
NC1(c2ccc(-c3nc4ccn5c(=O)[nH]nc5c4cc3-c3ccccc3)cc2)CCC1 + CO[C@H]1C[C@@H]2CC[C@@H](C)[C@@](O)(O2)C(=O)C(=O)N2CCCC[C@H]2C(=O)O[C@H]([C@H](C)C[C@@H]2CC[C@@H](OCCO)[C@H](OC)C2)CC(=O)[C@H](C)/C=C(\C)[C@@H](O)[C@@H](OC)C(=O)[C@H](C)C[C@H](C)/C=C/C=C/C=C/1C [everolimus] (first compound 0.4 µM, partner dose 0.02 µM) | 59.4 | 60 | 63.2 | 51.5 | 62.8 | – | – | 54.1 | 65.7 | 60.3 | 85.8 | 52 | 59.6 | 69.5 | 56.6 | –
NC1(c2ccc(-c3nc4ccn5c(=O)[nH]nc5c4cc3-c3ccccc3)cc2)CCC1 + O=C(O)[C@@H]1[O][Sb](=[O])([O][Sb]2(=[O])[O][C@H]([C@H](O)CO)[C@H](O)[C@H](C(=O)O)[O]2)[O][C@H]([C@H](O)CO)[C@@H]1O [stibogluconate] (first compound 0.4 µM, partner dose 2 µM) | 88.9 | 91 | 80.6 | 86.1 | 93.5 | – | – | 92.2 | 82.6 | 105 | 88.4 | 80.6 | 90.1 | 89.2 | 99.1 | 96
C=C(c1ccc(C(=O)O)cc1)c1cc2c(cc1C)C(C)(C)CCC2(C)C [Bexarotene] + Clc1ccc(Nc2nnc(Cc3ccncc3)c3ccccc23)cc1 [vatalanib] (first compound 2 µM, partner dose 2 µM) | 80 | 89.4 | 91.2 | 70.9 | 114 | – | – | 99 | 91.2 | 89 | 102 | 93.6 | 90.7 | 98.5 | 94.6 | 87.7
